Assay results published in PMC4336329 (PLoS ONE, 2015).
Among all 310,000 compounds or so, about 14,000 (4.5%) showed an effect of 50% or more. Effects have a minus sign here. Some of the results follow.

What follows are compounds tested against human ether-à-go-go-related gene (hERG) potassium channel (human, UniProt Q12809) (assay: primary screen, population patch clamp on CHO cells stably expressing hERG).
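Also: peak tail current of the secondary pulse compared with the same well before compound.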

human ether-à-go-go-related gene (hERG) potassium channel, sequence (Q12809 whole entry, looked up): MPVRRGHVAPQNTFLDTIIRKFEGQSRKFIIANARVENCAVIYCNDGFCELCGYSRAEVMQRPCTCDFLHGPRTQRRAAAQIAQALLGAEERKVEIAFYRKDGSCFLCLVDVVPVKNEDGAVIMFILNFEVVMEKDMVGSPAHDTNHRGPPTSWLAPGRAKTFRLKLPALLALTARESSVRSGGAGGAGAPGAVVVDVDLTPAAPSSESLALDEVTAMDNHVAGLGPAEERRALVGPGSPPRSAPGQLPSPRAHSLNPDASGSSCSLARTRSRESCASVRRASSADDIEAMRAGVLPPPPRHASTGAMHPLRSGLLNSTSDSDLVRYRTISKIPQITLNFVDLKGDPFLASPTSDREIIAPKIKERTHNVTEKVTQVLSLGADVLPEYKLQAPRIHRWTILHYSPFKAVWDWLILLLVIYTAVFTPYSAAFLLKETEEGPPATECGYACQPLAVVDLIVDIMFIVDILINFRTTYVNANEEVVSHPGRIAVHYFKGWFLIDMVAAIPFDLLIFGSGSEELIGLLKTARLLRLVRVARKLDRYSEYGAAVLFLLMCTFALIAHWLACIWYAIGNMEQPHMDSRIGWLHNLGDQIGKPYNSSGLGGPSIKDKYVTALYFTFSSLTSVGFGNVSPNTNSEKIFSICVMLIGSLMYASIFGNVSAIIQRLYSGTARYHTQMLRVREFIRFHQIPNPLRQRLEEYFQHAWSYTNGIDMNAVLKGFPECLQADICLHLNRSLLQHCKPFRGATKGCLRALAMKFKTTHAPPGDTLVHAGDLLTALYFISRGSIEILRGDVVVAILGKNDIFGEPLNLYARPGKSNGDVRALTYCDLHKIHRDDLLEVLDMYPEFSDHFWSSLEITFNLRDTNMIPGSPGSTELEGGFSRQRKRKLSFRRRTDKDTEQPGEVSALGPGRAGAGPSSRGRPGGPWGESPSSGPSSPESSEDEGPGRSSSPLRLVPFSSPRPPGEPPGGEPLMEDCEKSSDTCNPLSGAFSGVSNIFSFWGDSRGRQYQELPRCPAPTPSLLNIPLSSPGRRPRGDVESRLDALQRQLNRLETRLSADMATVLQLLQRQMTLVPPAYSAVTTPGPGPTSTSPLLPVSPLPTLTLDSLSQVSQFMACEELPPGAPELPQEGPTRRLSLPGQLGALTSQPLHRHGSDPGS

Going from CCC(C)(C)NC(=O)CN(C(=O)c1snc(C(N)=O)c1N)c1ccc2nc(C)sc2c1 to CC(=O)c1sc(NC(=O)c2c(F)cccc2F)nc1C, the “hERG current change (%, negative = inhibition) at 10uM” value rises from -7.15% to 1.74%.

Compared with C/C(Cl)=C\COc1cc(C)nc2c(Br)cccc12, Cc1ccc(OCC(=O)c2ccc(Cl)s2)c([N+](=O)[O-])n1 is lower in “hERG current change (%, negative = inhibition) at 10uM” value: 10.7% for the first, 2.66% for the second.

Going from CC1CCCCN1C(=O)CSc1nnc(CSc2ncccn2)n1C (stereo not drawn) to CCC(=O)Nc1nnc(SCC(=O)N2c3ccccc3CC2C)s1 (stereo not drawn), the “hERG current change (%, negative = inhibition) at 10uM” value rises from 3.86% to 5.26%.

Going from O=C(NCC(F)(F)F)Nc1ccccn1 to Cc1noc(C(=O)Nc2ccccc2C(F)(F)F)c1Cl, the “hERG current change (%, negative = inhibition) at 10uM” value falls from -1.8% to -5.43%.

First: CN(C)NC(=S)NC1CC2CCC1C2 (stereo not drawn)
Second: COCC(=O)N(Cc1nc2sc(C)c(C)c2c(=O)[nH]1)C1CCCCC1
The “hERG current change (%, negative = inhibition) at 10uM” value of the first is higher: 8.87% for the first, -6.56% for the second.

First: CCCOc1cccc(C(=O)N/N=C/c2ccoc2)c1
Second: O=C(N/N=C/c1ccncc1)c1cccc(S(=O)(=O)Nc2ccc(Cl)cc2)c1
The “hERG current change (%, negative = inhibition) at 10uM” value of the first is higher: 4.65% for the first, -0.329% for the second.

Going from COc1ccc(OC)c(/C=N/NC(=O)c2[nH]ncc2Br)c1 to CSc1nc(C)cc(OCC(=O)N/N=C/c2ccccc2O)n1, the “hERG current change (%, negative = inhibition) at 10uM” value rises from 9.01% to 11.9%.

Going from Cc1ccc(S(=O)(=O)NCC(=O)OCC(=O)N2CCN(C(=O)c3ccco3)CC2)cc1C to Cc1ccc(NC(=O)COC(=O)CNC(=O)c2ccco2)cc1, the “hERG current change (%, negative = inhibition) at 10uM” value rises from -10.1% to 6.01%.

Compared with CC(OC(=O)CCc1c[nH]c2ccccc12)C(=O)c1ccccc1 (stereo not drawn), O=C(c1ccccc1)N1CCc2ccccc21 is higher in “hERG current change (%, negative = inhibition) at 10uM” value: -17.8% for the first, -2.69% for the second.

Going from CC(C(=O)OCC(=O)Nc1cccc(S(=O)(=O)N(C)C)c1)N1C(=O)c2ccccc2C1=O (stereo not drawn) to C/C(=N\N1C(=O)c2ccccc2C1=O)c1cccc([N+](=O)[O-])c1, the “hERG current change (%, negative = inhibition) at 10uM” value rises from -82.8% to 4.83%.

Compared with COc1ccc(CCn2c(NCc3ccco3)nc3c2c(=O)[nH]c(=O)n3C)cc1, O=C(CSc1nc2ccccc2c(=O)n1Cc1ccco1)c1ccc(F)cc1 is higher in “hERG current change (%, negative = inhibition) at 10uM” value: 5.73% for the first, 9.22% for the second.

Compared with O=C(O)c1ccccc1C(=O)Nc1cc(-c2ccccc2)[nH]n1, CCC(C(=O)OCC(=O)Nc1c(C)n(C)n(-c2ccccc2)c1=O)c1ccccc1 (stereo not drawn) is lower in “hERG current change (%, negative = inhibition) at 10uM” value: 18% for the first, -6.14% for the second.

Compared with Cc1ccc(-c2nc(CSCC(=O)Nc3cc(C)on3)c(C)o2)cc1, COc1cccc(-c2nc(CS(=O)(=O)CC(=O)NCc3ccccc3OC)c(C)o2)c1 is lower in “hERG current change (%, negative = inhibition) at 10uM” value: 5.39% for the first, 1.7% for the second.

Compared with CN(C)S(=O)(=O)N(CC(=O)N1CCN(c2ccccc2F)CC1)c1ccccc1, Cn1nc(C(=O)N2CCN(c3ccc([N+](=O)[O-])cc3)CC2)c2c1-c1ccccc1S(=O)(=O)C2 is lower in “hERG current change (%, negative = inhibition) at 10uM” value: 2.46% for the first, -31.4% for the second.

First: Fc1ccc(CSc2nnc(-c3ccncc3)o2)cc1
Second: Fc1ccc(CNn2cnnc2SCc2ccc(F)cc2)cc1
The “hERG current change (%, negative = inhibition) at 10uM” value of the first is higher: 13.7% for the first, -22.9% for the second.

Compared with CC(=O)c1ccc2oc3ccccc3c(=O)c2c1, COC(=O)Cn1nc(-c2ccc(C)cc2)c2ccccc2c1=O is higher in “hERG current change (%, negative = inhibition) at 10uM” value: 7.46% for the first, 7.66% for the second.

First: Cc1ccc(OCCNC(=O)CCc2nc3sc4c(c3c(=O)[nH]2)CCCC4)cc1
Second: COc1ccc(NC(=O)CCCNC(=O)Cn2cnc3sc4c(c3c2=O)CCCC4)cc1OC
The “hERG current change (%, negative = inhibition) at 10uM” value of the first is lower: 14% for the first, 22.1% for the second.

First: C/C=C/c1ccc(OCC(=O)Nc2ccc(OC)c(OC)c2)c(OC)c1
Second: CCCC1=NN2C(=N)/C(=C\c3ccc(OCCOc4ccc(NC(C)=O)cc4)c(OC)c3)C(=O)N=C2S1
The “hERG current change (%, negative = inhibition) at 10uM” value of the first is higher: 19.8% for the first, 10.8% for the second.

First: O=S(=O)(c1ccccc1Cl)N1CCC(O)(c2ccc3c(c2)OCO3)CC1
Second: COc1cc(C)c(C)cc1S(=O)(=O)N1CCN(Cc2ccc3c(c2)OCO3)CC1
The “hERG current change (%, negative = inhibition) at 10uM” value of the first is lower: -24.8% for the first, -6.56% for the second.

Going from Cc1ccc(S(=O)(=O)c2c[nH]c3ccc(C)cc3c2=O)cc1 to Cc1ccc(S(=O)(=O)CCC(=O)Nc2ccc(F)cc2)cc1, the “hERG current change (%, negative = inhibition) at 10uM” value falls from 14.5% to 2.99%.

Going from COc1ccc(N(CC(=O)NCCSC2CCCCC2)S(=O)(=O)c2ccc(C)cc2)cc1 to O=C(Nc1ccc(S(=O)(=O)N2CCOCC2)cc1)c1ccc(F)cc1, the “hERG current change (%, negative = inhibition) at 10uM” value falls from 16.7% to -6.51%.

Going from CC(=S)/C=C1\Sc2ccccc2N1C to Cc1ccc2c(c1)N(C)/C(=C/c1cccc[n+]1CCO)S2.[I-], the “hERG current change (%, negative = inhibition) at 10uM” value falls from 7.05% to -9.09%.

Compared with COc1ccc(CCNC(=O)CCc2cn(C)c3ccccc23)c(OC)c1OC, COCCCNc1nc2cc(OC)c(OC)cc2c2nc(-c3ccccc3)nn12 is higher in “hERG current change (%, negative = inhibition) at 10uM” value: -2.11% for the first, 24.7% for the second.

First: CC1Cc2ccccc2N1C(=O)c1ccc2snnc2c1 (stereo not drawn)
Second: O=C(CNC(=O)[C@@H]1Cc2ccccc2CN1)Nc1ccc2c(c1)OCO2
The “hERG current change (%, negative = inhibition) at 10uM” value of the first is lower: -17% for the first, 4.64% for the second.

Going from CC(C)n1cnnc1SCC(=O)NC(=O)c1ccccc1 to C=CCNc1nc(C(=O)OCC(=O)c2ccccc2)cs1, the “hERG current change (%, negative = inhibition) at 10uM” value rises from -1.1% to 13.6%.

Compared with Cc1cc(C=C(C#N)C#N)c(C)n1-c1ccccc1, COc1cccc(NC(=O)CN(C)C(=O)c2cc(C3CC3)nn2-c2ccccc2)c1 is lower in “hERG current change (%, negative = inhibition) at 10uM” value: 2.01% for the first, -23.1% for the second.

Going from N#CCSc1nnc(-c2ccccc2)c(-c2ccccc2)n1 to COc1cccc(CNCc2cccnc2)c1OCc1ccccc1.Cl, the “hERG current change (%, negative = inhibition) at 10uM” value rises from -11.4% to 19.3%.

Compared with O=C(O)Cc1ccc(NC(=O)Nc2ccc3c(c2)OCO3)cc1, O=C(Nc1ccc2c(c1)OCO2)C1CCN(Cc2cc3c(cc2O)OCO3)CC1 is lower in “hERG current change (%, negative = inhibition) at 10uM” value: 18.5% for the first, -33.5% for the second.

Compared with CC(=O)N1CCN(CCN=CC2=C(O)CC(c3ccco3)CC2=O)CC1 (stereo not drawn), Cc1nnc(NC(=O)c2cccc(S(=O)(=O)N3CCN(C)CC3)c2)s1 is higher in “hERG current change (%, negative = inhibition) at 10uM” value: 1.17% for the first, 5.24% for the second.

Compared with CN(C(=O)c1ccc(=O)[nH]c1)C1(C(=O)NC2CCCCC2)CCCCC1, COCC(=O)N(C)C1(c2nnnn2CCOC(=O)Nc2ccc(Cl)cc2)CCCCC1 is higher in “hERG current change (%, negative = inhibition) at 10uM” value: 11.4% for the first, 12.1% for the second.

Compared with CCOc1ccc(C(C)NC(=O)c2ccccc2F)cc1 (stereo not drawn), COc1ccc(NC(=O)c2nc[nH]c2C(=O)NCc2ccccc2)cc1 is higher in “hERG current change (%, negative = inhibition) at 10uM” value: 7.87% for the first, 16.7% for the second.

Going from COCc1nnc(NS(=O)(=O)c2ccc(F)cc2)s1 to O=C(NC(=S)Nc1ccc(S(=O)(=O)Nc2nccs2)cc1)C1CC1, the “hERG current change (%, negative = inhibition) at 10uM” value rises from 0.955% to 8.94%.

First: CC(C)CN(CC(C)C)C1=N/C(=C\c2ccco2)C(=O)N1c1ccccc1
Second: CCOC(=O)c1ccc(-n2c(-c3ccco3)nc3ccccc3c2=O)cc1
The “hERG current change (%, negative = inhibition) at 10uM” value of the first is higher: 17.7% for the first, -2.14% for the second.

Compared with Cc1cc[n+](CC(=O)c2ccc3c(c2)OCCO3)cc1.[Br-], Cc1ccc(CSc2nnc(NC(=O)C3=COCCO3)s2)cc1 is higher in “hERG current change (%, negative = inhibition) at 10uM” value: -22.2% for the first, -0.208% for the second.

Compared with CC(=O)NNc1nc2ccccc2s1, Cc1cc(NC(=O)C2CCCC2)nc2c1c(=O)oc1ccccc12 is higher in “hERG current change (%, negative = inhibition) at 10uM” value: -7.64% for the first, 5.43% for the second.

Going from CS(=O)(=O)c1ccc(Cl)c(S(=O)(=O)NCc2ccccc2)c1 to Cc1ccc2[nH]c(O)c(N=NC(=O)CCc3ccccc3)c2c1Br, the “hERG current change (%, negative = inhibition) at 10uM” value falls from 11.9% to 10.5%.

First: Brc1ccc(NCc2nnc3n2CCCCC3)cc1
Second: O=C(CSc1nnc(COc2ccc3c(c2)CCCC3)o1)Nc1ccc(F)cc1
The “hERG current change (%, negative = inhibition) at 10uM” value of the first is lower: -18.7% for the first, 10.2% for the second.

First: CCOc1ccc2nc(N=NC3=C(O)CC(C)(C)CC3=O)sc2c1
Second: COC/C=C/C1=CC2=CC(=O)C(C)(OC(=O)c3cnc4ccccc4n3)C(=O)C2=CN1CCc1c[nH]c2ccccc12 (stereo not drawn)
The “hERG current change (%, negative = inhibition) at 10uM” value of the first is lower: 1.04% for the first, 16.5% for the second.

Compared with CC(C)Oc1ccc(C(=O)NCCCNC(=O)c2cccnc2)cc1, CN(CCC#N)C(=S)Nc1ccc(Oc2ccccc2)cc1 is lower in “hERG current change (%, negative = inhibition) at 10uM” value: -4.05% for the first, -28.6% for the second.

Going from COc1cc(C=O)ccc1OCC(=O)N1CCCC1 to Cc1ccc(-c2csc3ncn(CC(=O)N4CCOCC4)c(=O)c23)cc1, the “hERG current change (%, negative = inhibition) at 10uM” value falls from 18.9% to -5.93%.

First: Cc1cccc(Nc2c(-c3ccc(O)cc3)nc3ncccn23)c1
Second: Cc1ccc(C)c(Cn2c(CN(C)Cc3ccccc3)nc3c2c(=O)n(C)c(=O)n3C)c1
The “hERG current change (%, negative = inhibition) at 10uM” value of the first is higher: -25.5% for the first, -51.3% for the second.

Compared with Cc1[nH]c2ccccc2c1C(O)CN1CCN(c2cccc(C(F)(F)F)c2)CC1 (stereo not drawn), CN1CCN(S(=O)(=O)c2cccc(C(=O)Nc3sccc3C#N)c2)CC1 is higher in “hERG current change (%, negative = inhibition) at 10uM” value: -17.8% for the first, -5.03% for the second.

Compared with CCOc1ccc(CN2CCN(Cc3ccsc3)C(CCO)C2)cc1CO (stereo not drawn), CCOc1cc(NC(=S)NCCCN2CCOCC2)c(OCC)cc1NC(=O)C1CCCCC1 is higher in “hERG current change (%, negative = inhibition) at 10uM” value: -39.4% for the first, -11.2% for the second.

Going from CCc1nnc(NC(=O)CCC(=O)O)s1 to CCCCn1c(N)c(N(CCOC)C(=O)CN2C(=O)c3ccccc3C2=O)c(=O)[nH]c1=O, the “hERG current change (%, negative = inhibition) at 10uM” value falls from -1.7% to -5.53%.

First: O=C1c2ccccc2C(=O)N1CCC1=CCCCC1
Second: O=C1NC(=O)N(c2ccc3c(c2)OCO3)C(=O)/C1=C/c1ccc(N2CCCCC2)o1
The “hERG current change (%, negative = inhibition) at 10uM” value of the first is lower: 8.04% for the first, 9.86% for the second.
